# The campaign covered roughly 310,000 compounds. About 2,200 (0.71%) showed an effect of 50% or more. Effects have a minus sign here. This is one part of the list.
# Biological target: human ether-à-go-go-related gene (hERG) potassium channel (human, UniProt Q12809)
# Assay: primary screen, population patch clamp on CHO cells stably expressing hERG
# human ether-à-go-go-related gene (hERG) potassium channel, sequence (Q12809 whole entry, looked up): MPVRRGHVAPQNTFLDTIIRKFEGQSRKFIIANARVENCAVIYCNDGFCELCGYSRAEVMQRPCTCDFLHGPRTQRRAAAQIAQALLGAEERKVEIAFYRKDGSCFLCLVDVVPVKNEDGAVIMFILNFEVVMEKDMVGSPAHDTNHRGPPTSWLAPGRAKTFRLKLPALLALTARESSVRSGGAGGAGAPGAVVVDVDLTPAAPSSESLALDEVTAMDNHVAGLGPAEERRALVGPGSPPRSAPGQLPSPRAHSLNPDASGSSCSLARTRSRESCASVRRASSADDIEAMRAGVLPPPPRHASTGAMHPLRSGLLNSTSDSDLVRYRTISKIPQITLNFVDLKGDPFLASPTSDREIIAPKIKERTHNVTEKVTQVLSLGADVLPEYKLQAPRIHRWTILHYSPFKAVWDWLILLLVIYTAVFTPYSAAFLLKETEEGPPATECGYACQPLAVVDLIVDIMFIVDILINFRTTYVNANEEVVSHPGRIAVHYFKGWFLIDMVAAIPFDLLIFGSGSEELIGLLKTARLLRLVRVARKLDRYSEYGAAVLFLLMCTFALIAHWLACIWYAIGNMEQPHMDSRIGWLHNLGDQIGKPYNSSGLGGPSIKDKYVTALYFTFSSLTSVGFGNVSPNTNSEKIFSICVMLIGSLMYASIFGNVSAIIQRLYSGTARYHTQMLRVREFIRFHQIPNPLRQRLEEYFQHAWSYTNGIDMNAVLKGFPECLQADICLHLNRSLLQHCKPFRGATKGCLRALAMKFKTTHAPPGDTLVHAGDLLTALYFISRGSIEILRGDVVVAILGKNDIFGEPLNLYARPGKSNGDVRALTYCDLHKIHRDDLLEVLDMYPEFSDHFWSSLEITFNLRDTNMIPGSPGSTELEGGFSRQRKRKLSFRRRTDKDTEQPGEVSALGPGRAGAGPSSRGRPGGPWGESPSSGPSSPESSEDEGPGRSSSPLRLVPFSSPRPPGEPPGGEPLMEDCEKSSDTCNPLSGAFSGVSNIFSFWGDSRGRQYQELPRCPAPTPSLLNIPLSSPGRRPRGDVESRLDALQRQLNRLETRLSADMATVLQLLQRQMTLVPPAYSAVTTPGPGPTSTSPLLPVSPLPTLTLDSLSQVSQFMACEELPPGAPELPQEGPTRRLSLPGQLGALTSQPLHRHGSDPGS
row,Structure (SMILES),"hERG current change (%, negative = inhibition) at 1uM"
1,CCOC(=O)C1(Cc2ccccc2C(F)(F)F)CCN(Cc2ccon2)CC1,4.14%
2,Cc1ccc(C(=O)NCCC(=O)N2CCCC2)cc1,11.6%
3,COc1cc(SC)ccc1C(=O)NC1CCCCC1,2.69%
4,COc1ccc(OC)c(-c2cnc(OC(C)(C)C)nc2OC(C)(C)C)c1,8.65%
5,COCCn1c(C)cc(C(=O)CSc2cc(C)c3ccc(OC)cc3n2)c1C,15.5%
6,COC(=O)Cn1c(=O)c2c(nc3n2CC(C)CN3c2ccc(C)c(C)c2)n(C)c1=O (centres unmarked),16.5%
7,CCN1CCN(c2ccc(N)c(C)c2)CC1,0.461%
8,COc1ccc(OC)c(NCc2nnc(-c3ccccc3)o2)c1,16.9%
9,Cc1ccc(C)c(N2CCN(C(=O)Cc3c(C(=O)O)[nH]c4ccc(Cl)cc34)CC2)c1,7.62%
10,Cn1nc(C(F)(F)F)c(-c2ccc(Br)cc2)c1NC(=O)c1ccco1,-25.2%
11,COCC(C)NC(=O)COc1nncc2ccccc12 (centres unmarked),11.4%
12,COC(=O)Cc1cc(=O)[nH]c(/N=C(\N)Nc2ccc(C)cc2)n1,7.54%
13,CCCN1CCN(CCCNC(=O)CN2C(=O)c3cccnc3Oc3ccc(Cl)cc32)CC1,2.45%
14,CCOC(=O)c1cc(C#N)c(N)nc1C,2.15%
15,CCNc1nc(OC)nc(N(OC)S(=O)(=O)c2ccc(C)cc2)n1,12.3%
16,CC(=O)N1CC=CC1(C)C(=O)NCc1cc(F)cc(C(F)(F)F)c1 (centres unmarked),12.2%
17,CCCN1CCN(S(=O)(=O)c2ccc3c(c2)CCC(=O)N3)CC1,7.13%
18,c1ccc(-c2nc(C3CCCCC3)c3ccccc3n2)cc1,18.7%
19,C/C(=N\NC(=O)c1cccc(S(=O)(=O)N2CCCC2)c1)c1ccco1,16.6%
20,NC(=O)NC(=O)COC(=O)c1ccccc1OCc1ccc(F)cc1,10.1%
21,O=C1c2c(O)cc(O)cc2O[C@H](c2ccc(O)c(O)c2)[C@H]1O,9.2%
22,O=C1CCc2cc(S(=O)(=O)NC3CCCCC3)cc3c2N1CC3,11.7%

row,Structure (SMILES),"hERG current change (%, negative = inhibition) at 1uM"
1,CC(C)CC1(C(=O)NCCc2c[nH]c3ccccc23)C=CCN1C(=O)c1ccccc1 (centres unmarked),18.4%
2,COc1ccc([N+](=O)[O-])cc1NC(=O)C(C)OC(=O)c1ccccn1 (centres unmarked),7.24%
3,COc1ccccc1/C=C/C=N/Nc1cccc(C(=O)O)c1,17%
4,O=C(NCC1CCCO1)c1nnc(Cc2ccc(F)cc2)o1 (centres unmarked),13.2%
5,COc1ccc(-n2nnnc2CNC(=O)c2ccc3ccccc3c2)cc1,4.76%
6,CCOC(=O)N1CCC(N2CCN(S(=O)(=O)c3ccc(Cl)cc3)CC2)CC1.O=C(O)C(=O)O,-4.5%
7,CC(=O)Nc1ccc(S(=O)(=O)NCCS(=O)(=O)N2CCN(c3ccccc3F)CC2)cc1,13%
8,CC1CCN(C(=S)NC2CCCCC2)CC1,-3.23%
9,Cc1cc(C)cc(OC(=O)CS(=O)c2ccc(C(F)(F)F)cc2[N+](=O)[O-])c1 (centres unmarked),1.21%
10,Cc1ccccc1Nc1ccc2nonc2c1[N+](=O)[O-],8.57%
11,COc1ccccc1-c1nnc(NC(=O)CCS(=O)(=O)c2ccccc2)o1,15.6%
12,Cc1nc([N+](=O)[O-])cn1CC(=O)c1ccc(Br)cc1,16.3%
13,COCCCNC(=O)C1CC(=O)N(Cc2ccc(OC)cc2)C1 (centres unmarked),19.3%
14,O=C(NCCN1C(=O)S/C(=C/c2cccnc2)C1=O)C1CC(=O)N(Cc2ccccc2)C1 (centres unmarked),5.09%
15,CC(C)c1ccc(CN(C(=O)c2ccco2)C2CCS(=O)(=O)C2)cc1 (centres unmarked),12.6%
16,O=S(=O)(NC(=NC1CCCC1)C(F)(F)F)c1ccccc1,3.54%
17,CCC(CC)NCC(O)COc1ccc(Br)cc1.O=C(O)C(=O)O (centres unmarked),-3.02%
18,COc1ccccc1C(=O)N/N=C/c1c[nH]c2ccccc12,8.55%
19,O=C(COC(=O)c1cc([N+](=O)[O-])ccc1N1CCOCC1)Nc1ccc(Cl)cn1,-8.14%
20,COc1ccccc1NC(=O)CSc1nnc(-c2ccc(NC(C)=O)cc2)n1C,5.8%
21,Cc1cc(C)cc(OCc2nnc(SCC(=O)Nc3ccccc3)o2)c1,-5.69%
22,COc1ccc(/C=N/NC(=O)COc2cc(C)cc(C)c2)cc1COC(C)=O,3.16%

# — PMC4336329 (PLoS ONE, 2015)
